Assay results taken from PubChem BioAssay AID1159554 (Broad Institute, 2015).
About 2,100 (2.2%) of roughly 94,000 compounds were called active. Inconclusive means that the source gave no clear call. Such entries were picked first, then a sample of the others. Cut-off read from the data, not from the text of the source: active = activity change below about -80%; inconclusive = no clear call, values can overlap the other calls; inactive = above that.

Test: P. falciparum Dd2 growth inhibitors, primary screen, SYBR Green fluorescence, single dose replicates (AID 1159554)
Settings: 72 h, at 10 µM, hits give low values

Activity change, inactive:
C[C@@H]1CN([C@@H](C)CO)C(=O)c2cc(N(C)C)ccc2O[C@@H]1CN(C)C(=O)Nc1ccccc1 20.6%
O=C(c1cccnc1)N1C[C@@H]2[C@H](c3ccccc31)[C@@H](CO)N2CC1CCCCC1 2.05%
C[C@@H]1CCCCO[C@H](CN(C)Cc2ccc3c(c2)OCO3)[C@@H](C)CN([C@H](C)CO)C(=O)c2cc(NC(=O)Cc3ccccc3)ccc2O1 -34.8%
COCCNC(=O)C[C@H]1CC[C@@H](NC(=O)NC2CCCCC2)[C@H](CO)O1 27.1%
O=C(NC1CCCC1)N1CC(=O)N2[C@@H](CO)[C@H](c3ccc(-c4cccc(F)c4)cc3)[C@@H]2C1 -30.3%
COc1ccc(NC(=O)Nc2ccc3c(c2)[C@@H]2C[C@@H](CC(=O)NCc4ccc5c(c4)OCO5)O[C@H](CO)[C@@H]2O3)cc1 16.2%
COc1ccc2c3c(n(C)c2c1)[C@@H](CO)N(Cc1ccccc1)CC31CN(S(=O)(=O)c2ccc(C)cc2)C1 -30.8%
Cc1ccc(S(=O)(=O)N(C)C[C@@H]2OCCCC[C@@H](C)Oc3ccc(NC(=O)c4ccccc4)cc3C(=O)N([C@H](C)CO)C[C@@H]2C)cc1 -74.4%
C[C@@H](NC(=O)C[C@H]1CC[C@@H]2[C@H](COC[C@H](O)CN2Cc2cc(F)ccc2F)O1)c1ccccc1 -15.3%
CC(C)c1ccc(NC(=O)C[C@H]2CC[C@H]3[C@@H](COc4ccc(NC(=O)Nc5ccc(F)c(F)c5)cc4C(=O)N3C)O2)cc1 5.27%
C[C@H](CO)N1C[C@H](C)[C@@H](CN(C)Cc2ccc3c(c2)OCO3)Oc2ccc(NC(=O)C3CCCCC3)cc2CC1=O -50.9%
C[C@H](CO)N1C[C@H](C)[C@H](CN(C)C(=O)Nc2ccc(F)cc2)OCCCC[C@H](C)Oc2ccc(NC(=O)Cc3ccccc3)cc2C1=O 4.46%
COc1ccc2c3c([nH]c2c1)[C@@H](CO)N(Cc1nccs1)CC31CCN(C(=O)C2CCOCC2)CC1 6.67%
Cc1ccccc1-c1ccc2c(c1)O[C@@H](CN(C)C(=O)Nc1ccc(C(F)(F)F)cc1)[C@@H](C)CN([C@@H](C)CO)S2(=O)=O -75.4%
C/C=C/c1cnc2c(c1)C(=O)N([C@@H](C)CO)C[C@H](C)[C@H](CN(C)Cc1ccccc1F)O2 4.51%
CCC(=O)Nc1ccc2c(c1)OC[C@@H](C)N(S(=O)(=O)c1cn(C)cn1)C[C@@H](C)[C@H](OC)CN(C)C2=O 4.93%
C[C@H]1CN([C@@H](C)CO)C(=O)c2c(c3ccccc3n2C)-c2ccccc2CO[C@@H]1CN(C)C(=O)CCC(F)(F)F -41.8%

Activity change, inconclusive:
CCCNC(=O)N1[C@H](CO)[C@H](c2ccc(C3=CCCCC3)cc2)[C@H]1CNC(C)C -82.2%
C[C@@H]1CCCCO[C@H](CN(C)CC2CCCCC2)[C@H](C)CN([C@@H](C)CO)C(=O)c2cc(NC(=O)CCCCCC(=O)Nc3ccccc3N)ccc2O1 -80.3%
Cc1ccc(S(=O)(=O)N(C)C[C@@H]2OCCCC[C@@H](C)Oc3ccc(NC(=O)Nc4ccc(C(F)(F)F)cc4)cc3C(=O)N([C@@H](C)CO)C[C@H]2C)cc1 -81.5%
C[C@@H]1CCCCO[C@H](CN(C)C(=O)NC2CCCCC2)[C@H](C)CN([C@H](C)CO)C(=O)c2cc(NS(=O)(=O)c3ccccc3)ccc2O1 -82.3%
COc1ccc2c3c([nH]c2c1)[C@H](CO)N(CC1CC1)CC31CCN(C(=O)Nc2cccc(F)c2)CC1 -83%
COc1ccc(NC(=O)Nc2cccc3c2O[C@@H](CN(C)Cc2ccc(C(=O)Nc4ccccc4N)cc2)[C@H](C)CN([C@@H](C)CO)C3=O)cc1 -80.7%
Cc1ccc(S(=O)(=O)N(C)C[C@H]2OCCCC[C@@H](C)Oc3ccc(NC(=O)c4ccccc4)cc3C(=O)N([C@@H](C)CO)C[C@@H]2C)cc1 -80.5%
COc1cccc(NC(=O)N(C)C[C@@H]2Oc3cc(C#Cc4ccncc4)ccc3S(=O)(=O)N([C@H](C)CO)C[C@@H]2C)c1 -81.8%
COc1ccc2c3c(n(C)c2c1)[C@H](CO)N(C(=O)c1ccccc1)CC31CN(Cc2ccccc2OC)C1 -80.4%
O=S(=O)(c1ccc(F)cc1)N1CCCCN2[C@@H](CO)[C@@H](c3ccc(C4=CCCCC4)cc3)[C@@H]2C1 -80.4%
COc1ccc2c3c(n(C)c2c1)[C@H](CO)N(Cc1ccc2c(c1)OCO2)CC31CCN(C(=O)c2ccc3c(c2)OCO3)CC1 -80.8%
C[C@@H]1CN([C@H](C)CO)S(=O)(=O)c2ccc(C#Cc3ccc(F)cc3)cc2O[C@H]1CN(C)S(=O)(=O)c1cn(C)cn1 -82.3%
COc1ccc(S(=O)(=O)N(C)C[C@@H]2OCCCC[C@H](C)Oc3ccc(NC(=O)Nc4ccccc4)cc3C(=O)N([C@H](C)CO)C[C@H]2C)cc1 -81.5%
CN1c2ccc(C#Cc3cccnc3)cc2[C@H]2[C@H](CCN2S(=O)(=O)c2ccc(F)cc2)[C@H]1CO -80.1%
C[C@H]1CCCCO[C@@H](CN(C)CC2CCCCC2)[C@@H](C)CN([C@@H](C)CO)C(=O)c2cc(NC(=O)c3ccccc3)ccc2O1 -81%
C[C@@H]1CCCCO[C@@H](CN(C)S(=O)(=O)c2ccccc2)[C@H](C)CN([C@H](C)CO)C(=O)c2cc(NC(=O)NC3CCCCC3)ccc2O1 -81.8%
COc1ccc(C#Cc2cnc3c(c2)C(=O)N([C@H](C)CO)C[C@H](C)[C@H](CN(C)S(=O)(=O)c2ccc(F)cc2)O3)cc1OC -81.5%
O=C(C1CCC1)N1C[C@@H]2N[C@H](C1)C2c1ccc(-c2ccccc2F)cc1 (stereo not given in full) -81.7%
C[C@@H]1CN([C@H](C)CO)C(=O)c2cc(NC(=O)Nc3ccc(C(F)(F)F)cc3)ccc2O[C@@H](C)CCCCO[C@H]1CN(C)Cc1ccc(C(F)(F)F)cc1 -81.4%
C[C@@H]1CN([C@H](C)CO)C(=O)c2cccc(NS(=O)(=O)c3ccc(Cl)cc3)c2O[C@H]1CN(C)Cc1ccc(C(=O)Nc2ccccc2N)cc1 -80.3%
C[C@@H]1CN([C@@H](C)CO)C(=O)Cc2cc(NC(=O)Nc3ccc(C(F)(F)F)cc3)ccc2O[C@H]1CN(C)Cc1ccc(Oc2ccccc2)cc1 -80.5%
C[C@@H]1CCCCO[C@@H](CN(C)Cc2ccc(Cl)c(Cl)c2)[C@H](C)CN([C@@H](C)CO)C(=O)c2cc(NC(=O)CCC(F)(F)F)ccc2O1 -80.1%
COc1cccc(C#Cc2ccc([C@@H]3[C@@H](C#N)N(C(=O)c4ccccn4)[C@H]3CO)cc2)c1 -82.8%
O=C(C[C@H]1C=C[C@@H](NC(=O)Nc2ccccc2F)[C@H](CO)O1)NCc1ccc(-c2ccccc2)cc1 -81.1%
CCCN(C)C[C@@H]1Oc2cc(C#Cc3ccncc3)ccc2S(=O)(=O)N([C@@H](C)CO)C[C@@H]1C -81.8%
C[C@H]1CN([C@@H](C)CO)C(=O)c2cc(NC(=O)Nc3ccc(F)cc3)ccc2O[C@@H]1CN(C)CC1CC1 -80.8%
Cc1ccc(S(=O)(=O)N(C)C[C@@H]2OCCCC[C@H](C)Oc3ccc(NC(=O)Nc4ccc(F)cc4)cc3C(=O)N([C@@H](C)CO)C[C@H]2C)cc1 -82.7%
COc1ccc(C#Cc2cnc3c(c2)C(=O)N([C@@H](C)CO)C[C@H](C)[C@H](CN(C)CC2CCCC2)O3)cc1 -80.2%
C[C@H]1CN([C@@H](C)CO)C(=O)c2c(c3ccccc3n2C)-c2ccccc2CO[C@@H]1CN(C)S(=O)(=O)c1ccc(C(F)(F)F)cc1 -87.1%
C[C@H]1CN([C@@H](C)CO)C(=O)c2cc(NC(=O)Cc3ccccc3)ccc2O[C@H]1CN(C)S(=O)(=O)c1ccc(Cl)cc1 -80.5%
CN(C)c1ccc2c(c1)[C@@H]1C[C@H](CC(=O)N3CCc4ccccc4C3)O[C@@H](CO)[C@@H]1O2 -81.2%

Activity change, active:
COc1ccc(NC(=O)Nc2cccc3c2O[C@H](CN(C)C(=O)Nc2cccc4ccccc24)[C@H](C)CN([C@@H](C)CO)C3=O)cc1 -88%
COc1cccc(CN2CCCCN3[C@H](CO)[C@@H](c4ccc(C#Cc5cccnc5)cc4)[C@H]3C2)c1 -86.2%
C[C@H]1CCCCO[C@H](CN(C)C(=O)Nc2ccc(F)cc2)[C@@H](C)CN([C@@H](C)CO)C(=O)c2cc(NC(=O)C3CCCCC3)ccc2O1 -85.7%
CC(C)(O)C#Cc1ccc([C@H]2[C@H](CO)N3CCCCN(C(=O)c4ccc(F)cc4)C[C@@H]23)cc1 -94.3%
COc1ccc(S(=O)(=O)N(C)C[C@H]2OCCCC[C@H](C)Oc3ccc(NC(=O)Nc4cccc5ccccc45)cc3C(=O)N([C@H](C)CO)C[C@H]2C)cc1 -86.1%
N#C[C@H]1[C@@H](c2ccc(C#CC3CCCC3)cc2)[C@@H](CO)N1S(=O)(=O)c1ccccc1 -83.2%
C[C@H](CO)N1C[C@H](C)[C@@H](CN(C)Cc2ccc(C(=O)Nc3ccccc3N)cc2)Oc2c(NC(=O)Nc3ccc4c(c3)OCO4)cccc2C1=O -87.9%
